About 200 (0.47%) of roughly 43,000 compounds were called active. About 12% were inconclusive and are not listed. The call rests on the fitted dose curve; in most records, active means well fitted cell-killing curve with a large enough effect; inconclusive means small, poorly fitted or top-dose-only effect, or effect the other way; inactive means flat fitted curve, though single readings scatter. This is one part of the list.
assay: Cell viability qHTS assay in S16 Pmp22-F2sN cells; conditions: S16 Pmp22-F2sN Schwann cells viability, CellTiter-Glo, 24 h; series mostly up to 57.5 µM; activity change, negative = cytotoxicity: at the top concentration; further: nearly all actives have a fitted effect of over 65% in size
Outline: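 S16 Pmp22-F2sN Schwann cells (500-1,000/well) in phenol-red-free DMEM with 10% FBS received 23 nL compound by pin tool for 24 h at 37 °C. Viability was then read as CellTiter-Glo luminescence after 15 min at room temperature.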
On the % scale 0 is the no-effect control and ±100 the full control effect; potency means the concentration at half of the fitted maximal effect.

| SMILES | activity change, negative = cytotoxicity | Potency |
| --- | --- | --- |
| Cc1nc2c3ccccc3nc(NNC(=O)CCC(=O)N3CCN(c4ccc(F)cc4)CC3)n2n1 | inactive: 3.38% |  |
| O=C(Nc1ccc(OC(F)(F)F)cc1)c1cc(-c2ccc(Cl)cc2)on1 | inactive: 4.89% |  |
| Cc1cccc(NC(=O)CSc2cn(CC(=O)N3CCOCC3)c3ccccc23)c1C | inactive: 5.06% |  |
| Cc1ccc2nc(COc3ccccc3NC(=O)Nc3ccc(F)c(Cl)c3)cc(=O)n2c1 | inactive: -13.1% |  |
| CC(=O)N1CCCc2ccc(NC(=O)c3ccc(OC(C)C)cc3)cc21 | inactive: -3.86% |  |
| CCc1ccc(NC(=O)Cn2ncn3c(cc4ccccc43)c2=O)cc1 | inactive: -1.11% |  |
| Cc1ccc2c(=O)cc(C(=O)Nc3c(C)cccc3C)oc2c1 | inactive: -1.24% |  |
| Cc1cc2c(cc1S(=O)(=O)NCc1ccc(F)cc1)OCCN2C | inactive: 4.65% |  |
| CCCCN(Cc1cc2cc(C)ccc2[nH]c1=O)C(=O)c1cccc(Cl)c1 | inactive: 6.35% |  |
| COc1cccc2cc(-c3nc4sc5c(c4c(=O)[nH]3)CCC(C(C)(C)C)C5)c(=O)oc12 (stereo unspecified) | inactive: -2.52% |  |
| COc1ccc(S(=O)(=O)c2c(Nc3cccc(Cl)c3)sc(C(=O)c3ccccc3)c2N)cc1 | inactive: 12.4% |  |
| COc1ccc(/C=C/c2nc(C#N)c(N3CCCCC3)o2)cc1OC | inactive: 0.844% |  |
| Cc1ccc(C(=O)c2oc3ccccc3c2NC(=O)COc2ccc(Cl)c(C)c2)cc1 | inactive: 10.8% |  |
| COc1cccc(NC(=O)Cn2c(=O)oc3cc(S(=O)(=O)N4CCCCC4)ccc32)c1 | inactive: 3.04% |  |
| COc1cc(C2CC(=O)Nc3cc4c(cc32)OCO4)cc(OC)c1O (stereo unspecified) | inactive: 1.93% |  |
| Cc1c(C)n(Cc2ccc(Cl)cc2)c2ccc(C(=O)N3CCN(c4ccccc4F)CC3)cc12 | inactive: -27.7% |  |
| COc1cccc(CNC(=O)C2CCCN(c3nnc(-n4c(C)ccc4C)s3)C2)c1OC (stereo unspecified) | inactive: 6.39% |  |
| CSc1nn(Cc2ccc(F)cc2)c(N(C(C)=O)C(C)=O)c1S(=O)(=O)c1ccccc1 | inactive: 5.86% |  |
| CCc1cccc(CC)c1NC(=O)CN(C)S(=O)(=O)c1ccc2c(c1)n(C)c(=O)c(=O)n2C | inactive: -5.11% |  |
| O=c1oc2ccccc2cc1-c1cn2cc(Cc3ccc(F)cc3)sc2n1 | inactive: -1.95% |  |
| CCc1ccc(NC(=O)CC(NCc2cccnc2)C(=O)O)cc1 (stereo unspecified) | inactive: -1.3% |  |
| Cc1ccc(OCC(=O)Nc2ccc(OCc3cc(=O)n4c(C)csc4n3)cc2)cc1C | inactive: -4.28% |  |
| CCOC(=O)c1c(C)oc2ncnc(Nc3cccc(C(F)(F)F)c3)c12 | inactive: 13.6% |  |
| CSc1ccc(CCNC(=O)Cn2nc(C)n3c(cc4sccc43)c2=O)cc1 | inactive: -0.777% |  |

| SMILES | activity change, negative = cytotoxicity | Potency |
| --- | --- | --- |
| Cc1nc(-c2ccc(Cl)cc2)sc1CCNC(=O)C(=O)Nc1ccc2c(c1)OCO2 | inactive: 5.15% |  |
| CCOC(=O)c1cccc(NC(=O)Cn2ncc3c(=O)oc4ccccc4c32)c1 | inactive: -5.08% |  |
| Cn1c(=O)c2c(nc(SCC(=O)Nc3ccccc3F)n2Cc2ccccc2F)n(C)c1=O | inactive: 1.36% |  |
| Cc1ccc(Cn2ccnc2SCC(=O)NCc2ccccc2)cc1 | inactive: 2.43% |  |
| COc1ccccc1N1CCN(C(=O)c2cc3c(=O)n(Cc4cccs4)ccc3nc2C)CC1 | inactive: 5.62% |  |
| CCOC(=O)N1CCc2c(sc3c2c(=O)n(-c2ccc(CC)cc2)c(=O)n3Cc2ccc(F)cc2Cl)C1 | inactive: 16.6% |  |
| COc1ccc(N2CCN(CCCNC(=O)c3c(C)nn(-c4ccc(F)cc4)c3-n3cccc3)CC2)cc1 | inactive: -9.66% |  |
| CCc1ccc(NC(=O)Cn2nnc(-c3ccccc3N)n2)cc1 | inactive: 0.7% |  |
| CC(C)C(=O)Nc1nnc(S(=O)(=O)N2CCc3ccccc32)s1 | inactive: 9.68% |  |
| Cc1cccc(N2CCN(c3ccc4cc(S(=O)(=O)N5CCC(C)CC5)ccc4n3)CC2)c1C | inactive: 4.19% |  |
| COc1ccccc1NC(=O)N1CCN(c2ccc3nnc(-c4ccc(F)cc4)n3n2)CC1 | inactive: 4.08% |  |
| CCOc1ccc(NC(=O)Cn2nc(Cc3cccnc3)c3ccccc3c2=O)cc1 | inactive: -1.08% |  |
| Cc1ccc(-n2ncc3c(NCCCn4ccnc4)ncnc32)cc1C | inactive: -19.3% |  |
| CCOC(=O)c1c(NC(=O)Cc2coc3ccc(CC)cc23)sc2c1CCC2 | inactive: 0.728% |  |
| CCOc1ccc2nc(N3CCCC(C(=O)NCCc4ccc(Cl)cc4)C3)sc2c1 (stereo unspecified) | inactive: -8.49% |  |
| CCOC(=O)CSc1nc2ccccc2c(=O)n1-c1ccc(C(=O)NCCOC)cc1 | inactive: 7.08% |  |
| O=C(Nc1ccccc1C(F)(F)F)N1CCOc2ccc(Cl)cc21 | inactive: 3.95% |  |
| Cc1ccc(N2C(=O)CS(=O)(=O)C23C(=O)Nc2ccccc23)cc1C (stereo unspecified) | inactive: 10.9% |  |
| Cc1ccccc1Cn1ccn(-c2ccc(F)c(F)c2)c(=O)c1=O | inactive: 4.51% |  |
| CN(Cc1nc(-c2ccc(Cl)cc2)no1)S(=O)(=O)c1ccccc1 | inactive: -12.3% |  |
| CC(C)c1ccc(C2CC(=O)Nc3cc4c(cc32)OCCO4)cc1 (stereo unspecified) | inactive: -2.01% |  |
| CCOC(=O)N1CCC(NC(=O)c2ccc3c(c2)N(Cc2ccccc2C)C(=O)c2ccccc2S3=O)CC1 (stereo unspecified) | inactive: 3.28% |  |
| O=C(NCc1cccs1)c1ccc2c(c1)sc1nc(-c3ccc(F)cc3)cn12 | inactive: 11.9% |  |
| O=C(Nc1cc(Cl)ccc1Cl)c1ccc2c(c1)N(Cc1cccc(Cl)c1)C(=O)c1ccccc1S2=O (stereo unspecified) | inactive: 8.26% |  |

| SMILES | activity change, negative = cytotoxicity | Potency |
| --- | --- | --- |
| COc1ccc(N2CCN(C(=O)Nc3cn(CC(C)C)c(=O)c4ccccc34)CC2)cc1 | inactive: -3.69% |  |
| Cc1ccc2oc(C(=O)Nc3c(C(=O)Nc4cccc(Cl)c4)oc4ccccc34)cc(=O)c2c1 | inactive: 0.817% |  |
| Cc1nn(-c2ccccc2)c(OC(=O)c2ccccc2)c1S(=O)(=O)c1ccccc1 | inactive: 8.2% |  |
| COc1c(Cl)cc(C(=O)Nc2cc(-c3nc4ccccc4[nH]3)ccc2C)cc1Cl | inactive: -3.23% |  |
| CCCCNc1nc2c(S(=O)(=O)c3ccc(Br)cc3)nnn2c2ccsc12 | inactive: -18.7% |  |
| Cc1ccc(NC(=O)Cn2c(=O)n(Cc3nc(-c4ccccc4)no3)c(=O)c3ccccc32)c(C)c1 | inactive: 0.967% |  |
| CCN(C(=O)CN1C(=O)c2ccccc2Sc2ccc(C(=O)OC)cc21)c1cccc(C)c1 | inactive: -0.161% |  |
| CCC(=O)N1CCc2cc(S(=O)(=O)NC(Cc3ccccc3)C(=O)NCc3ccccc3)ccc21 (stereo unspecified) | inactive: -5.75% |  |
| Cc1ccc(OCC(=O)Nc2ccc(OCc3cc(=O)n4ccsc4n3)cc2)cc1C | inactive: -1.44% |  |
| Cc1ccc(C(=O)N(Cc2ccc(N(C)C)cc2)CC2CCCO2)cc1 (stereo unspecified) | inactive: 11.9% |  |
| Cc1nn(C(C)C(=O)NCc2ccc(OC(C)C)cc2)c(=O)c2c1sc1ccccc12 (stereo unspecified) | inactive: 4.37% |  |
| Cc1ccc2ccc3cc(C(=O)N4CCN(c5ccccc5F)CC4)nc3c2[nH]1 | inactive: 4.13% |  |
| CCCCNC(=O)CCC(=O)NNc1nc2ccccc2c2nc(C)nn12 | inactive: 5.13% |  |
| CC(CCc1ccccc1)NC(=O)CSc1n[nH]c(-c2ccccc2)n1 (stereo unspecified) | inactive: -9.51% |  |
| COc1ccccc1NC(=O)c1c(-c2ccc(C)cc2)nnc2ccccc12 | inactive: -0.357% |  |
| Cc1ccc(Nc2c(-c3ccccn3)nc3ccc(Br)cn23)cc1 | inactive: 0.927% |  |
| CCC(=O)N1CCc2cc(Br)cc(S(=O)(=O)N3CCCC(C(=O)Nc4ccc(C)c(F)c4)C3)c21 (stereo unspecified) | inactive: -2.09% |  |
| COCCN(CCOC)S(=O)(=O)c1ccc(C(=O)Nc2sc3c(c2C(N)=O)CCCC3)cc1 | inactive: -1.11% |  |
| CCCn1c(=N)c(C(=O)NCC2CCCO2)cc2c(=O)n3cc(C)ccc3nc21 (stereo unspecified) | inactive: 8.34% |  |
| Cc1cccc(-c2nc(SCc3cc(=O)c4c(C)cc(C)cc4[nH]3)n[nH]2)c1 | inactive: 4.23% |  |
| CCCNC(=O)c1ccc2c(c1)N=C(CCC)c1ccccc1S2 | inactive: 2.96% |  |
| COc1cccc(NC(=O)Cn2nc(N3CCN(c4ccccc4)CC3)ccc2=O)c1 | inactive: 4.23% |  |
| Cc1ccc(Cl)cc1-n1ncc2c(NCCc3ccccc3)ncnc21 | inactive: -0.288% |  |
| O=C(Cn1nc2c(cc1=O)CCCC2)NCc1ccc(Cl)cc1 | inactive: -14.6% |  |

| SMILES | activity change, negative = cytotoxicity | Potency |
| --- | --- | --- |
| Cc1cccc(CSc2cn(CC(=O)N3CCOCC3)c3ccccc23)c1 | inactive: 6.72% |  |
| O=C(Cn1ncc2c3ccccc3n(Cc3ccccc3)c2c1=O)NCCc1ccc(Cl)cc1 | inactive: 16.9% |  |
| COc1ccc(S(=O)(=O)N2CCC(c3nc4ccccc4s3)CC2)cc1OC | inactive: 3.64% |  |
| Cc1ccc(CCNC(=O)C2CCN(S(=O)(=O)c3ccc4c(ccn4C)c3)CC2)cc1 | inactive: -1.59% |  |
| Cc1ccc(-c2nc3c4c(-c5ccccc5)c(-c5ccccc5)oc4ncn3n2)cc1 | inactive: -4.27% |  |
| Cc1ccc(CNC(=O)CSc2nc3ccccc3nc2Cc2ccc(C)cc2)cc1 | inactive: 8.65% |  |
| CCOc1ccc(NC(=O)c2c(C)oc3nc(C)nc(N4CCOCC4)c23)cc1 | inactive: 11.1% |  |
| COc1ccc(NC(=O)CSc2nc(C)cc(C)c2C(=O)Nc2ccccc2OC)cc1 | inactive: 8.84% |  |
| COc1ccc(S(=O)(=O)NCC(c2ccco2)S(=O)(=O)c2cccs2)cc1F (stereo unspecified) |  | active: 12.6 µM |
| COc1ccc(-n2c(SCC(=O)NCc3ccc(F)cc3)nc3c([nH]c4ccccc43)c2=O)cc1 | inactive: 2.75% |  |
| O=C(CCSCc1cccc(Cl)c1)NCCc1ccc(Cl)cc1 | inactive: 3.82% |  |
| O=C(c1ccccc1)N1CCc2cc(CNS(=O)(=O)c3ccc(Cl)s3)ccc21 | inactive: -0.591% |  |
| CC(=O)Nc1cccc(NC(=O)Cn2cnc3c(oc4ccccc43)c2=O)c1 | inactive: 2.79% |  |
| Cn1c(=O)n(C)c2cc(N3CCOCC3)c(NS(=O)(=O)c3cccc(C#N)c3)cc21 | inactive: -11.6% |  |
| Cc1nn2cc(-c3ccc(OC(C)C)cc3)nc2s1 | inactive: 9.19% |  |
| Cc1oc(-c2ccc(Cl)cc2)nc1Cn1c(=O)cc(C)c2c(C)nn(-c3ccccc3)c21 | inactive: 4.78% |  |
| CCC(=O)Nc1nnc(S(=O)(=O)N2c3ccccc3CC2C)s1 (stereo unspecified) | inactive: 3.43% |  |
| Cc1ccc(CNc2nc3ccccc3n3cnnc23)cc1 | inactive: -4.28% |  |
| Cc1csc2nc(COC(=O)c3ccc(NC(=O)C(C)Oc4ccccc4)cc3)cc(=O)n12 (stereo unspecified) | inactive: 4.54% |  |
| CCC(=O)N1c2ccccc2CC1C(=O)NCc1cc(Br)ccc1OC (stereo unspecified) | inactive: 20.5% |  |
| Cc1ccc2oc3c(c(=O)c2c1)C(c1ccc(O)cc1)N(c1nc(C)c(C)s1)C3=O (stereo unspecified) | inactive: -12.8% |  |
| Cc1cccc(NC(=O)C2CCCN2S(=O)(=O)c2ccc3c(c2)n(C)c(=O)c(=O)n3C)c1 (stereo unspecified) | inactive: -0.978% |  |
| Cc1cc(C)c2oc(-c3cccc(NC(=O)c4ccc(-c5cccc([N+](=O)[O-])c5)o4)c3)nc2c1 | inactive: 14.6% |  |
| O=C(NCc1cccc(F)c1)c1ccccc1NC(=O)c1nsc2ccccc12 | inactive: -1.27% |  |
